From the supplement of paper PMC3334620
In all, about 33,000 sequences were measured (“E-score (-0.5 to 0.5)”: median about -0.016, highest 2% from about 0.31 on). This is one part of the list.

The sequences below were run against Cst6 (UniProt P40535) (assay: PBM E-score (8-mer binding enrichment) (E-score (-0.5 to 0.5)); higher = stronger / more preferred TF binding; most listed sequences are background and not binding sites). Details: protein concentration: 200 nM; construct: GST-DNA-binding domain.
In short: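 For each ungapped eight-base word taken together with its reverse complement, the Universal PBM Analysis Suite assigned an E-score. Binding data came from GST-tagged yeast transcription factors, applied at about 100-200 nM, on universal all-10-mer Agilent arrays made double-stranded by primer extension. Fluorescent anti-GST marked bound protein, and scans were normalised with masliner.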

Sequence	PBM E-score
ACGGTTGG	-0.122
CTCATCAA	0.134
CGATAGCA	-0.0491
ATGATCTA	0.176
AAACCGTA	-0.119
AATCATCC	0.113
ATTCGCTA	-0.0986
AGGGCGCC	0.0238
CATACGGC	0.321
GATATAGA	0.0929
AGCGTTGA	-0.0573
GACGGTGC	-0.0546
GTGGCCAC	0.0191
CGATGATC	0.117
ATGTCACG	0.396
ACTCGCGG	-0.106
AGGGAGGC	-0.139
AAGACGAG	-0.203
GAGGCAAA	0.118
ATCGCTCG	-0.112
ACTACACT	-0.128
ACGATAAC	0.119
TTTATAAA	0.359
ACTGGAAC	-0.0423
AGTCGATG	0.0201

Sequence	PBM E-score
AAGCCAGT	-0.315
ATGAGGTG	0.174
TGGACACA	-0.0689
GCAGGGTA	-0.0581
AATCCCTG	-0.109
TTGAGCAA	-0.115
GCAGAGAC	-0.168
GAGTACGC	-0.123
CAGACCAC	-0.0133
TACCGAGA	-0.00302
AAGCCCCG	-0.196
GACTCAGA	-0.154
AATTTGAC	0.15
ATTATAAA	0.197
CCTAGCGA	-0.296
CGGTTAAA	-0.0654
ACTGCATC	0.182
GAGGTTGA	-0.0414
CCCTCACA	-0.153
ACCATCTC	-0.0673
AGTGCGAT	0.1
TCTGCCCA	-0.13
GGTTTTGA	0.105
GGTTCAGA	-0.107
AGAGGACC	-0.322

Sequence	PBM E-score
CTTTTGGA	0.00491
CCGATACC	-0.27
TCCAGAGA	-0.117
TCAATAAA	0.169
CTGGACAA	-0.171
CAACCCAG	-0.231
ACCACCGA	-0.145
CGACAAAA	0.163
CCTCCTGC	-0.167
CGCATTAA	0.169
AACCTTGG	0.0431
ATTGTTCG	0.236
GCACGCCA	-0.0767
CAACCGAG	-0.138
GCTCGAAA	-0.03
GCGGCGCC	0.376
TCTCTAAA	-0.0336
GACCTCAA	0.195
CAGCGAAG	-0.126
CCCACCGC	-0.094
ATCTCCTG	0.027
CTTTTCGA	0.201
GTATCGAA	0.131
CGAACAAA	0.22
TATTCGCA	0.154

Sequence	PBM E-score
CCATATGA	0.115
ATAGAGGC	-0.0967
ATTCAGGA	0.1
CTTCACGA	-0.183
AGTATCGC	-0.0882
AAAGAACT	0.114
GCATGGTA	-0.00978
CAACACCG	-0.0342
CTATAGTC	-0.0652
ACTTACAA	0.196
AAGAGTAA	0.21
ATTCCTCG	-0.0625
AACCGTAT	-0.216
ACTCCCCA	-0.174
CCGCCCCA	0.00048
AGTGTCTA	-0.0121
CGTAATCA	0.427
CTTACTCC	-0.11
ATGGGTAA	0.0783
GTGGCAAC	-0.0356
CCCTATGC	-0.245
AGAAAGCG	0.0485
ACTTCGGA	0.103
CCTAAGGA	-0.0635
AGGCGACT	-0.103

Sequence	PBM E-score
AAATGCCG	0.282
CCGAACCA	-0.198
TCGGAGCA	-0.239
AGCCCGCA	-0.193
ACCTGAGA	-0.0108
CCCTCTAC	-0.296
AATGATTC	0.225
ACCGACCC	-0.0871
ACCGCAGT	-0.0541
GAGCCCGA	-0.0446
AAAAGGAC	-0.041
AACCACTG	0.0638
GAGATTGC	-0.217
AGCGTAGC	-0.198
GAGTATTA	0.131
AATAGCGG	-0.112
CCTTCGTC	-0.00736
CTCCGCCC	-0.249
GCAGAGTA	-0.122
CAAACGGC	0.204
ATTGAAGG	-0.183
CCTGTGAC	0.124
AAGCTGAC	0.163
CCGGCATC	-0.199
CGATCTTC	-0.164

Sequence	PBM E-score
AACTACGG	-0.11
CCCCGTTA	-0.129
AACGCTCT	-0.252
AGGAGGTC	-0.241
CAGCCCAG	-0.383
CTTACAAG	0.0591
AAATTTGA	0.185
GCGATTCC	-0.238
ACATACCT	0.146
GTACTGAC	0.0925
GAGACTAA	-0.0492
CGGGCAGC	-0.178
CACCCGCG	0.2
AGCCGTTA	0.144
GCGGGTCA	0.00648
CTAGTCAG	-0.184
GCCGCGGA	0.0146
CGGATCCG	-0.109
GGCCCTAA	-0.154
TATAGGGA	-0.173
CAGAGTCA	-0.0937
TATTCCCA	-0.0457
AGATGGTC	-0.26
CCTAATCG	0.0636
CTTTTGAA	0.175

Sequence	PBM E-score
CTTGGAGA	-0.161
CGCGAAAA	0.137
AGTTAAGC	0.139
ACTAACAC	0.078
AAGTCTCA	-0.228
CTAATGAA	0.11
AAAGATAG	-0.026
AACGCATC	-0.0267
CTGATACC	-0.0973
AGAAATCG	-0.0866
GACTCATA	0.0553
CGGCGCTC	0.13
TCGCGTAA	0.314
AGTCTCGA	-0.146
CTTCTCCC	-0.246
GTCCAGCA	-0.336
CGGTGCTC	-0.13
ATAATACG	0.225
AACGGAAA	0.142
CAGGCCCG	-0.343
CACTCACG	0.00761
ACATACTG	-0.0812
AACCATTA	0.221
AGGAGCTC	-0.261
CCGGTCTA	-0.207

Sequence	PBM E-score
GAGGATGA	0.144
AGACCATC	-0.128
CAGGTCTA	-0.158
CACTCCTC	-0.0875
CTACGACC	-0.234
AGCTCCGG	-0.169
GGCACAAA	0.119
GACAAAGA	0.157
CAGTGTAA	0.107
GGACCCAC	-0.0974
CACGAGCG	-0.131
CTGGTCAA	-0.0782
CTAGACCA	-0.12
CGGCCTGA	-0.22
AAGCGGCC	-0.222
ATTTAGAA	0.15
CCGTACCG	-0.0599
ATATTATA	0.219
ATACACCG	-0.0621
ACGGAAGA	0.0815
CAGCTTAC	0.0119
ATCGTACC	-0.0751
AAGTCCAA	-0.0248
CACGCAAA	0.155
AATTTCCA	0.218

Sequence	PBM E-score
GGTAGGCA	-0.184
AAAGGTGC	-0.0338
GGGACTAA	-0.189
AGCTGCTC	-0.228
CGAGTTGA	-0.00964
GCACGGAA	0.0438
GCGCATCA	0.0758
AAAAGGGC	0.0591
AGGTAGAA	-0.0392
TAAGACCA	-0.0159
ACATACGG	0.106
GGTCTAAA	0.00924
CTCCACCA	-0.373
ACTTTCTA	-0.0669
GAAACAAC	-0.00995
CGAGCTGC	-0.0922
GGACCAGA	-0.193
AACGACCA	0.0758
GGGGGCTA	-0.302
AGAACTGG	-0.0721
GGAGGACA	-0.227
ATGCTTCA	-0.00241
AATGGCAT	0.299
AATACTGA	0.104
TACAGGGA	-0.162

Sequence	PBM E-score
AAGCGACC	-0.0874
CGTCGGAC	-0.178
CCCTTGCG	-0.289
ATGCGTAA	0.268
TATACCCA	-0.168
CGCAAGTC	-0.275
AGTGTATC	0.078
AGGGTCGG	-0.272
AGAGCACT	0.0676
CGGGTATA	0.0585
CCGCTGGC	-0.115
GAAACACC	0.0585
CATAAGGG	0.0526
GCCCACTA	-0.219
AGCCTATA	0.0298
AGTCCCCG	-0.388
AATTGATC	0.0237
AGTGAGAT	0.099
AATAGATG	0.268
GTTAGTTA	0.227
CGTGCTGC	-0.0889
GCCGAGCC	0.00552
ACACTCGA	-0.0775
CACTGTCC	-0.0417
AACTGATA	0.152

Sequence	PBM E-score
CTGCAACC	-0.19
CATTTGAA	0.134
CTCTCCGC	-0.078
GTACTTTA	0.138
CCCAGCCG	-0.253
TAGTGAAA	-0.00366
CGTACTAG	-0.0411
GGACCTTA	-0.223
CCCTAGGC	-0.201
ATGACCGA	0.184
CTACCCGA	-0.087
AGAGGCGG	-0.149
AAACTCTG	0.0867
CGGGCACC	-0.0698
AAAAGTTC	0.154
ATTTTCTA	0.211
GGTACCAA	-0.188
CTCCCTTA	-0.223
CCCATGTC	-0.0686
CCATCCTA	-0.123
CGGGCCAC	-0.172
TAGAATCA	0.0982
ATTAACCC	0.0217
ACTAGTGA	0.0612
GCAGCCGC	-0.0375

Sequence	PBM E-score
CTAAATTA	0.262
GGTCGCCA	-0.303
GCTTGGAC	-0.338
AGTAGCGC	0.0288
AAAACTTG	0.188
CACGGGAC	-0.13
GCCCAAGC	-0.224
AATGCGAC	0.172
GGATCTAC	-0.146
ATACAAGA	-0.0014
AACTGACC	-0.182
CGATGTAA	0.117
CTCCATCC	-0.24
GGTATGGA	-0.192
AACAACCA	0.187
ACGCGTAG	-0.125
CATCACGG	0.242
CTAAGCAC	0.0393
GACTAGGC	-0.106
CCCAATGA	0.193
AAGGTGCT	-0.145
TCGAAAGA	0.0871
ATAGCTTG	0.0183
ACGCTGAT	0.119
AACCGGCT	-0.214

Sequence	PBM E-score
GTAAAATA	0.0657
CAGTGTCC	-0.112
CCACCTTA	-0.0336
GTCAGGAA	0.0884
AATTGGTG	0.187
GCGTCCAC	-0.0955
ACGGCGTC	0.347
CGTATAAC	0.261
GCTTAAAA	0.159
CATTTCCA	0.143
ATACTGCC	-0.0935
AATGAGCG	0.139
CGATATCC	-0.00743
CGCGGGAA	-0.134
GTGAGTTA	0.0284
AGTGATGA	0.284
CTCGCAAG	0.0742
AGTATTAA	0.229
CAACTGAA	-0.0694
ATGGGGCA	-0.0725
GGAGATCA	-0.0624
ACCCAGGC	-0.183
CCGCCGAA	0.081
AACAAGTC	0.0338
CTCGGGGA	-0.162

Sequence	PBM E-score
AAGACATA	0.0804
CTCCAGAA	-0.175
ACATCTAT	0.228
GGACATAA	0.0407
AGCACCCC	-0.271
CGGCGGTC	-0.132
CCTCACTC	0.0262
AGGCTAAC	-0.114
GTGTTGTA	0.211
CAACACCC	-0.142
CTCGCCCC	-0.346
TAGTAAGA	0.137
ATAATAAG	0.234
GCACGGGC	-0.287
ATCTTTTA	0.197
AAAGCCGT	0.223
CTGAATGA	0.21
CTACAGCC	-0.156
CTAGGAAC	-0.175
